Data published in PMC10726135.
The list shows a part of the results. At the low end of the ranking the order means little. Measured with an extract: partners may take part in the binding.

molecular target: T1, HNF4alpha8 (COS-7 nuclear extract) (UniProt P41235-5); test: protein-binding microarray; conditions: COS-7 nuclear extract on double-stranded Agilent 4x180k PBM; binding buffer, salt, pH and temperature not given; high values mean tight binding; double strand, one strand shown; sequences stand for … in …GCCTAGGGAGATTAGAGTATCGGTCGA
T1 sequence: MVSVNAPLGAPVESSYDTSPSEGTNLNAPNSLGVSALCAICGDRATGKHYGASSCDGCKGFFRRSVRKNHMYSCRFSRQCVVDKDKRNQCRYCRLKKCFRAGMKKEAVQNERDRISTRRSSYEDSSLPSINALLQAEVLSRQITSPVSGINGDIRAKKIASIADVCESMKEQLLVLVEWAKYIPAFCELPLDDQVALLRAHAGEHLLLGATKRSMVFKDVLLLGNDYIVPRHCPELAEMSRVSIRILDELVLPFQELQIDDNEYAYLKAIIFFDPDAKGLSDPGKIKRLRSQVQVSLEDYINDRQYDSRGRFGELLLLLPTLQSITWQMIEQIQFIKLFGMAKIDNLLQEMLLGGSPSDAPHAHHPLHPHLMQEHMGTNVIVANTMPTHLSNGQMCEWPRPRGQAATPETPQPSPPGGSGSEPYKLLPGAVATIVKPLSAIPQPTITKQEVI

Sequence | binding signal (log2 normalized intensity)
TTGCCCTTTAGTTATCTCTTCTTTCTGTAT | 2.37
TCCAAAATATTTGCAGTGAGAAGAGGAAAA | -1.29
TCAAAAATGCTTTACAAGGTGGTTGCTGTT | 1.15
CAGTAAGAGCATCAGCAATGAACAAAGGTC | 5.1
CCGCATTTTCCTTTGTTGGTTTTGCCCGAG | 2.03
AAGAGAGCCATTGGTGTAACTCTGGGTCTG | 1.25
CACTGAAGTGAGTTAATAAATACTGGAGGA | -1.3
GTTGAGGTCAGACATGGCTGTATGTGACAT | 1.09
TCAGGGAGCTTTTACCTCAAATAAAGGTCA | 3.83
TGACAAAGACAGATTAGATCTGCGTAAGGG | -1.24
TATCTTCAATGATAAGGAATGAGGAGTCAG | -0.96
TGACTTTCAGAAAGTCCTTGGAAACTGTTC | 0.358
CAATGGCCTTGCTGCGGATCAAAGGAGCTG | -1.03
TGGTGCTATGTCCCTGACTGTGTGGCTTGC | 0.908
CCACTTGGTGACTGTCATTTCCTTACAAAC | -1.24
AGAGGATTAAAAGATAAAACATTGTACCTT | 2.73
GAGCCAGTGAAGACTGAAAAGAGATAACTA | -1.36
CCCTTATCAGCTTATCTCAAGAATTGTCTA | 0.938
GATCAGTGAGAAGAGAAACACATGCAATCA | -1.25
GTTAGATTAGTGTGCAGCTTTGTGTAAAAC | 0.626
ATACTATTGATAACATCTAACAGCTGATGA | -1.12
TACACAGCTGATGGAAGTTTGCCCTGGTTG | 1.98
TGCATTGGAGGCCAGATGCCAACTGTGGAC | 1.31
ATTTGGCTTTGAATTCCACTTCTACCACTT | -0.21

Sequence | binding signal (log2 normalized intensity)
CCCATGGTCTGTAGAAGGCGCTGTGAAGCA | -1.22
CCCTGGTCTCTCTTACCCAACCAAAAACAA | 3.38
CACCAAAGCCCAAGGGATCGTCCAAATACC | -1.26
CCTCTCAGGAATGTGGATGCTAAAAGTGAA | -0.262
AATTCCAGTTTGGACTTTGATCCTGATGAC | 10
TCCTCATTCACCAGGCAATCAGCCTTAGGT | -1.32
CAAGCCGTTCCCTGTACCTAGAATTCTTTC | -0.961
TGTAGGGAGTGGTTCCCACAGCCCAACTCG | -1.37
TTCCCTTATCAGGACTTTGTGATTACATTG | 2.21
CGGCCGACGTGACCCGCCGCCCGAGGTCAC | 3.58
GGTGGTGACCCCAGACCTTAGTCTTCATGG | 2.03
ACTCCCTTAAATAATGCATACGCTAGCTTT | -1.32
AGAGTTTTAAAGTATCCCATCCATTTCCCA | 0.56
GGAGGACCTCTGGATTACATACCCAAGTTC | -0.273
CACTGTCTCAGGGTCCACATTCCAGGAATA | 2.44
GAGTTACACTATCGGCTTCCCTGGTCCTCA | -1.27
CCTGCCTTTGTATAAGCCGTGCAAAGTTCA | 4.57
CAAAGATAAGAAAAAAACAGCACAAAAATG | -1.38
GCAAGATAATGTCAAAAATCTTAAGGAGGA | -1.26
CACCACAAGTTTGAACTGCACAGGCCTACT | -1.33
CAACAGGGTTAAAAGCAAACCAAAAAGTTG | -1.22
GCTACTGCTCCACCTTTGAAATCTCAAATA | -0.729
TCTCTAGAATGAGCCTCTTCTTTAATAAGA | -1.32
AGTTTATCGAAAATCCCCCACCATTGTTAT | 4.35

Sequence | binding signal (log2 normalized intensity)
AAAAATGATGCTACTGGAGGTATAATATCT | 0.4
ATTCCCGCCGCCTCCGCTGGGGGACGCGAC | -1.39
TTACCCTGCAGTGTGACCTTTGCCTTCTTG | 8.09
TGGTAAAGATGACCAGCGTGTGGCGCCATT | -1.24
AGTGTACGTTGTACCCCACAGGTATTCTTT | 2.48
TGCTGATAAAGGGTGTGAGAGAGAAGGCAA | -1.28
GCCTGGGCGCGCCTGCCCTTCGCTCCCCGA | 3.16
GAATTTTTCCCCTAGTTACAACTGTAAACA | 1.34
GATAAGCGTATTTCAACCTTTGATCTATAA | 6.82
ATATTCTGAGACAACACTCAGGATACCTAA | -1.38
TGAGTATGAGTAGGCTGTAGAGGAGATGTG | 0.307
CTTTATCCAAATAACCATGCTCAACATCAA | -1.29
CACCTCTGCTTATCTCAACTGATTTACCTC | 0.918
AGAGGCTCCAGAAGGAATGCAGCCCTGTTG | -1.33
GGCAGGCTTCGAAAAATGGGTCTGGGATGT | 0.36
ATGGAGTGCTCTGAACCGTGTACCTGGGGC | 1.06
CACTGCTTTGAAAAAACCTGTTCAGCCAGA | -1.27
TCTCAGCCGCGCGGCTTCAGAGGCCAGCAG | -1.3
CCAACTAGAATGGAACTGAAGGCAGGAAAG | -1.38
AGCTGTGCGCTTAGTCCATGACGCAAGCGA | -0.944
GGCCCCAGGAGACCCCGCGAGACGGGTGCG | 1.04
CTATCTGCTGGGGGCTGGGCCCCACAGTGC | -1.31
CTGCCCTTCGTCCTGAGCAGTCCCTTCCCC | 2.63
GACGCGCCGGCGCAGCCGCGCTCCGCCCCG | -1.04

Sequence | binding signal (log2 normalized intensity)
TAGGGGTGGGATGGGGAGCAGTGGGAGGTG | -1.24
CCCTGGGGAAGGCAGGTCTCTCTCATTCAC | -1.33
AGAATCTTATCAGCAGATAAGGGCAGAGAG | -0.864
CAGCACTCTCTGATTACACAGGCCTTATAG | -1.36
CTTAGATAGCAGTGTGAGTGTCAGAGGCTA | -1.26
ATTAACACAGCTCTAGAGGGCTGCTTATCT | -1.31
GAAGAATCTGTATCAGCCTGTGACAAAGTC | -0.155
CCCAACAGACTTTCCCCCTATTTCCCTCTG | 2.58
TTTGTTGTTGAGCAAATCATAGTGTTTCTT | 1.29
GGACGCTTTAGAGAAACGCACTCGCCTCTC | -1.42
AAAAGAAAGCCCATTAAATCTTCCCTCCTG | -1.34
TTGATCAGCATTCAAATGAGGGCAGGATGC | -0.178
ATCACAAACTTTAGTAGTCCAAAGCTCAGA | 1.38
TATCATCTTCCCTGTTCAAACTAAACCTAA | -1.04
CAGCTAGTGAGATACGGCCTGGACTCCAAG | 1.66
TTTGGAAAATATTGCCAATATCTGCCATCT | -1.36
GTCTAAAGTTCAGTGAGATTAGGAAGTGTG | 1.87
GCTCACTCCTGGGACAAGGACTTTGGCTAG | 3.1
CTGAACCTTGGATCTCCTGCACCTGAACTT | 2.23
TCTTAGCCATGTTCTCTAGAAACAGAGCCC | -1.28
TAGACCAGCCAATTCTACTGGAAGTAGGTA | 0.931
